# The campaign covered roughly 270,000 compounds. About 5,800 (2.1%) were called active. Inconclusive means that the source gave no clear call. Such entries were picked first, then a sample of the others. Calls follow the shape of the dose curve; as a rule, active = well fitted inhibition curve with a large enough effect; inconclusive = small, poorly fitted or top-dose-only effect; inactive = flat fitted curve, though single readings scatter. Potencies beside an inconclusive call are fits to weak or partial responses and may not hold up.
# Biological target: Microtubule-associated protein tau (Homo sapiens) (UniProt P10636)
# Sequence of UniProt P10636 (P10636 whole entry, looked up): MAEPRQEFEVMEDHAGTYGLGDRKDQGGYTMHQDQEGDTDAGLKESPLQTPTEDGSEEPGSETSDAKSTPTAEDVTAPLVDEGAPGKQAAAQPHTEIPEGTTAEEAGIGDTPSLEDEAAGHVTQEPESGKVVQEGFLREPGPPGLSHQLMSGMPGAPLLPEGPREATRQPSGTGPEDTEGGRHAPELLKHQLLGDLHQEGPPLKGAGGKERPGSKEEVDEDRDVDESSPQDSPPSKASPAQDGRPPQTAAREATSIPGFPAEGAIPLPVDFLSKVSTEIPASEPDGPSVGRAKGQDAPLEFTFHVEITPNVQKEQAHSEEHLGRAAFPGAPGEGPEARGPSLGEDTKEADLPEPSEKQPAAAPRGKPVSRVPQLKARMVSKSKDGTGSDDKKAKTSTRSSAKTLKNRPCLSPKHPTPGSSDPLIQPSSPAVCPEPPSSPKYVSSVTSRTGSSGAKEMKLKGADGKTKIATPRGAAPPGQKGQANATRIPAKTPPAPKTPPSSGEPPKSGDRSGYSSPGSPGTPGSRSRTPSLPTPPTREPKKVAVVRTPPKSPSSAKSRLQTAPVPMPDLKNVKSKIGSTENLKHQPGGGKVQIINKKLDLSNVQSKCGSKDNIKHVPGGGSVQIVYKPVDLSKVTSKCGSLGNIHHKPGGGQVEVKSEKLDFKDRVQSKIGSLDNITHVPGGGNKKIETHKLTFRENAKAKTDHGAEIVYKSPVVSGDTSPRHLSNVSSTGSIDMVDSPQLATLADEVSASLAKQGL
# Assay: qHTS for Inhibitors of Tau Fibril Formation, Thioflavin T Binding; also: nearly all actives have a fitted effect of over 55% in size
# Details: recombinant tau K18 P301L, heparin-induced fibrillization, ThT fluorescence; series mostly up to 57.4 µM
# In short: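 Fibril formation assay: tau K18 P301L at 15 uM with trace Alexa 594 label, heparin inducer 20 uM, pH 7 sodium acetate buffer, 37 C for 6 hr; endpoint ThT signal.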
# Potency is read from the fitted curve at half-maximal effect; tags tell the direction and shape of the fitted curve.
row,SMILES,Potency
1,C=CCc1ccc(OCc2ccc(C(=O)Nc3ccc(NC(C)=O)cc3)o2)c(OC)c1,"inconclusive: 14.1 µM [inhibitor, partial curve]"
2,CCCC1(c2ccccc2)NC(=O)N(CC(=O)c2[nH]c(C)c(C(=O)OCC)c2C)C1=O (stereo not given),"inconclusive: 28.2 µM [inhibitor, single point]"
3,Cn1c(-c2c(N)n(C3CCCC3)c3nc4ccccc4nc23)nc2ccccc21,"inconclusive: 17.8 µM [inhibitor, single point]"
4,Cc1ccc(NC(=O)c2ccc(OC(=O)COc3ccc(Cl)cc3C)cc2)cc1,"inconclusive: 3.98 µM [inhibitor, full curve]"
5,O=C(C1=C(O)C(=O)N(CCN2CCOCC2)C1c1ccccn1)c1cccs1 (stereo not given),"inconclusive: 17.8 µM [inhibitor, partial curve]"
6,Cc1nn(-c2ccc([N+](=O)[O-])cc2)c(N)c1-c1ccccc1,"inconclusive: 12.6 µM [inhibitor, partial curve]"
7,Cc1ccc(Cl)cc1N1CCN(C(=O)c2ccc3c(c2)N(Cc2ccccc2F)C(=O)c2ccccc2S3=O)CC1 (stereo not given),inactive
8,C(=C\c1nnc2c3ccccc3ncn12)/c1ccccc1,inactive
9,C#CCSc1nc(-c2ccccc2)c2cc(Cl)ccc2n1,inactive
10,O=C(O)CSc1c(O)c2ccccc2[nH]c1=O,inactive
11,CCOc1ccccc1NC(=O)CCc1c(C)nc2c(c(C)nn2-c2ccccc2)c1C,inactive
12,CCOc1ccc(-c2cn3ccccc3n2)cc1[N+](=O)[O-],"inconclusive: 8.91 µM [inhibitor, partial curve]"
13,COc1ccc(-c2cc(OC(=O)c3ccccc3)c3c(C)oc(C)c3c(=O)c2)cc1OC,"inconclusive: 20 µM [inhibitor, partial curve, poor fit]"
14,CC(C)c1ccc2c(c1)NC(c1ccncc1)=NC(c1cccs1)=N2,"inconclusive: 12.6 µM [inhibitor, partial curve]"
15,Cc1ccc(C)n1-c1cccc(C(=O)O)c1,"inconclusive: 31.6 µM [inhibitor, single point]"
16,O=[N+]([O-])/C=C\c1ccc(N2CCCC2)c(F)c1,active: 15.8 µM
17,CCOc1ccc(-n2c(SCC(=O)Nc3ccc4c(c3)OCCO4)nc3c([nH]c4ccccc43)c2=O)cc1,inactive
18,Cc1ccc2c(c1)c(C1=NC(=S)NC1=O)c(O)n2C,"inconclusive: 2.51 µM [inhibitor, full curve]"
19,Cc1ccc(OC(=O)c2ccc(C)c([N+](=O)[O-])c2)cn1,"inconclusive: 14.1 µM [inhibitor, partial curve]"
20,O=C(N/N=C/c1ccc([N+](=O)[O-])o1)c1ccc(O)cc1,active: 10 µM
21,Cn1nc(-c2ccc(Cl)cc2)nc2c(=O)n(C)c(=O)nc1-2,active: 8.91 µM
22,O=C(Nc1ccc2c(c1)nc1n2CCSC1)c1ccccc1,"inconclusive: 35.5 µM [inhibitor, single point]"
23,CCN(C(=O)Cn1c(=O)nc(-c2ccccc2)c2cc(Cl)ccc21)c1cccc(C)c1,"inconclusive: 7.94 µM [inhibitor, partial curve]"

row,SMILES,Potency
1,CC(=O)Nc1ccc(N=Cc2nc(-c3ccc(C)cc3)oc2O)cc1,active: 4.47 µM
2,CCOc1ccccc1CNC(=O)c1cnc2sc(N3CCOCC3)nn2c1=O,inactive
3,COc1cc(/C=N/NC(=O)c2ccc([N+](=O)[O-])cc2Cl)cc(Br)c1O,"inconclusive: 15.8 µM [inhibitor, partial curve]"
4,Nc1c(C(=O)N2CCCC2)sc2nc(-c3ccccc3)ccc12,"inconclusive: 0.891 µM [inhibitor, partial curve, poor fit]"
5,CCOc1ccc(Nc2nc(Cl)nc(NCCO)n2)cc1,"inconclusive: 25.1 µM [inhibitor, single point]"
6,C/C(=N\Nc1ccc(C(=O)O)cc1)c1ccc(S(=O)(=O)NCc2ccco2)cc1,"inconclusive: 6.31 µM [inhibitor, partial curve]"
7,O=C(CCC(=O)N1CCSc2ccccc21)NCc1ccccc1Cl,inactive
8,O=C(c1ccncc1)N(c1ccc2oc3c(c2c1)CCCC3)S(=O)(=O)c1ccc(F)cc1,"inconclusive: 11.2 µM [inhibitor, partial curve, poor fit]"
9,CCC(=O)Nc1ccc(S(=O)(=O)Nc2cc(C)on2)cc1,inactive
10,O=C(COc1ccc(F)cc1)NN1C(=O)CSC1=S,"inconclusive: 6.31 µM [inhibitor, partial curve]"
11,COc1ccc2c(c1)c(=O)oc1cc3oc(C)c(C)c3cc12,"inconclusive: 12.6 µM [inhibitor, partial curve]"
12,O=C(CNC(=O)Cc1ccccc1)N=Nc1c(O)n(Cc2ccc3c(c2)OCO3)c2ccccc12,"inconclusive: 15.8 µM [inhibitor, partial curve]"
13,CCC(C)(C)n1nnnc1C(c1cc2cccc(C)c2[nH]c1=O)N1CCN(C(=O)c2ccco2)CC1 (stereo not given),"inconclusive: 39.8 µM [inhibitor, single point]"
14,O=C(Cc1c[nH]c2ccccc12)N/N=C/c1ccc(F)cc1,inactive
15,COc1ccc(-c2nnc(SCc3cccc(C#N)c3)o2)cc1,"inconclusive: 17.8 µM [inhibitor, partial curve, poor fit]"
16,Cc1ccccc1Nc1nc(-c2sc(NC(=O)c3ccc([N+](=O)[O-])cc3)nc2C)cs1,active: 3.98 µM
17,CN1C(=O)NC(c2ccc(O)cc2)C(C(=O)c2cccs2)C1(O)C(F)(F)F (stereo not given),inactive
18,Cn1nnc2c(NCc3ccccc3)ncnc21,inactive
19,CCN(CCCNC(=O)c1cc2cc3ccc(OC)cc3nc2s1)c1cccc(C)c1,"inconclusive: 2.24 µM [inhibitor, full curve]"
20,COc1ccc(N/N=C(\C#N)C(=N)SCc2ccccc2)cc1,active: 14.1 µM
21,COc1ccc(Nc2cnn(-c3nc4ccccc4s3)c(=O)c2Cl)cc1,"inconclusive: 17.8 µM [inhibitor, partial curve]"
22,COc1ccc(-c2cc(C(=O)OCC(=O)N3CCCC3)c3ccccc3n2)cc1,"inconclusive: 31.6 µM [inhibitor, single point]"

# From PubChem BioAssay AID1460 (National Center for Advancing Translational Sciences (NCATS), 2008)
